Laboratory results as given in US20240199692A1 (priority 2019, published 2024).
At least one peptide structure holds a part that was inferred or is arguable (an end, a ring closure or a residue). For at least one compound, name, drawing or mass did not settle the structure.

molecular target: T1, MMP2 (Homo sapiens, UniProt P08253); assay: Inhibitory effects on human MMP2 (Method 1), enzyme assay with MOCAc-Pro-Leu-Gly-Leu-A2pr(Dnp)-Ala-Arg-NH2 substrate, 96-well; format: biochemical; conditions: Test Example No. 1-1 (Method 1, 96-well)
T1 sequence (P08253 110-660): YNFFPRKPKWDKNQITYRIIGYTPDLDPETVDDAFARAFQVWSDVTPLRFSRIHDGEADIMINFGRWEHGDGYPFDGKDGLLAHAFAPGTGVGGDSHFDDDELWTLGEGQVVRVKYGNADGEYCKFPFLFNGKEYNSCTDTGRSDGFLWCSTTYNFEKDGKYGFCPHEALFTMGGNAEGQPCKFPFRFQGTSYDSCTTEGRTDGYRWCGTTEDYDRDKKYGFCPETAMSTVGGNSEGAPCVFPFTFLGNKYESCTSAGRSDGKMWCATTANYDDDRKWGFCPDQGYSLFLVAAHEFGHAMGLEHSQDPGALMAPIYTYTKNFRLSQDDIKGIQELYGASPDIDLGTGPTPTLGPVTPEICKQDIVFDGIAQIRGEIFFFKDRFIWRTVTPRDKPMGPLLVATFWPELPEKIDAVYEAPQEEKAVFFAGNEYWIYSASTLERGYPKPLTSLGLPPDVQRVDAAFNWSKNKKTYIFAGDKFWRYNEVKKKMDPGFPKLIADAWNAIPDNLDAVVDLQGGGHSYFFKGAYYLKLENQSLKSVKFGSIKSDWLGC
Description: In a reaction solution [50 mmol/L Tris-HCl (pH 7.5), 150 mmol/L NaCl, 10 mmol/L CaCl2, 0.05% Brij L23], 100 μg/mL human recombinant MMP2 enzyme and 1 mmol/L 4-Aminophenylmercuric acetate were mixed together, and reacted at 37° C. for 60 minutes. The human MMP2 activated through the reaction was poured into a 96-well microplate to reach a final concentration of 0.7 or 7 ng/mL.

**Q.** `CC[C@H](C)[C@@H](C(=O)N[C@@H](Cc1ccccc1)C(N)=O)N(C)C(=O)[C@H](CC(C)C)NC(=O)[C@H](CCN)NC(=O)CC[C@@H](NS(=O)(=O)c1ccc(NC(=O)c2ccc(Cl)cc2)cc1)C(=O)O` [Compound 729] was tested. Which IC50 did it give?
**A.** 1.4 nM

**Q.** Which IC50 does the source give for `CC[C@H](C)[C@@H](C(=O)Nc1ccc(C(N)=O)cc1)N(C)C(=O)[C@H](CC(C)C)NC(=O)[C@H](CCN)NC(=O)CC[C@@H](NS(=O)(=O)c1ccc(NC(=O)c2ccc(Cl)cc2)cc1)C(=O)O` [Compound 759] here?
**A.** 2.1 nM

**Q.** With `CC(C)C[C@H](NC(=O)[C@H](CN)NC(=O)C[C@@H](NS(=O)(=O)c1ccc(NC(=O)c2ccc(C(N)=O)cc2)cc1)C(=O)O)C(=O)N(C)[C@@H](CCC(=O)O)C(=O)N1CCC[C@H]1CC(N)=O` [Compound 792] as the compound, how does the IC50 read?
**A.** 0.11 nM

**Q.** With `CC(C)C[C@H](NC(=O)[C@H](CCN)NC(=O)C[C@@H](NS(=O)(=O)c1ccc(NC(=O)c2ccc(C(N)=O)cc2)cc1)C(=O)O)C(=O)N(C)[C@@H](CCC(=O)O)C(=O)N1CCC[C@H]1CC(N)=O` [Compound 793] as the compound, how does the IC50 read?
**A.** 0.23 nM

**Q.** For `CC[C@H](C)[C@@H](C(=O)NCCCCC(=O)N[C@H](CCCNC(=N)N)C(N)=O)N(C)C(=O)[C@H](CC(C)C)NC(=O)[C@H](CCN)NC(=O)C[C@@H](NS(=O)(=O)c1ccc(NC(=O)c2ccc(C(N)=O)cc2)cc1)C(=O)O` [Compound 804], which IC50 is on record?
**A.** 0.32 nM

**Q.** With `CC[C@H](C)[C@@H](C(=O)NCCCCC(=O)N[C@H](CCCCN)C(=O)N[C@H](CCCCN)C(N)=O)N(C)C(=O)[C@H](CC(C)C)NC(=O)[C@H](CCN)NC(=O)CC[C@@H](NS(=O)(=O)c1ccc(NC(=O)c2ccc(C(N)=O)cc2)cc1)C(=O)O` [Compound 811] as the compound, how does the IC50 read?
**A.** 0.82 nM

**Q.** For `CC[C@H](C)[C@@H](C(=O)NCCC[C@H](N)C(N)=O)N(C)C(=O)[C@H](CC(C)C)NC(=O)[C@H](CCN)NC(=O)CC[C@@H](NS(=O)(=O)c1ccc(NC(=O)c2ccc(C(N)=O)cc2)cc1)C(=O)O` [Compound 815], which IC50 is on record?
**A.** 0.98 nM

**Q.** Which IC50 does the source give for `CC[C@H](C)[C@@H](C(=O)NCCC[C@@H](N)C(N)=O)N(C)C(=O)[C@H](CC(C)C)NC(=O)[C@H](CCN)NC(=O)CC[C@@H](NS(=O)(=O)c1ccc(NC(=O)c2ccc(C(N)=O)cc2)cc1)C(=O)O` [Compound 816] here?
**A.** 1.3 nM

**Q.** Which IC50 does the source give for `CC[C@H](C)[C@@H](C(=O)NCCCC[C@@H](N)C(N)=O)N(C)C(=O)[C@H](CC(C)C)NC(=O)[C@H](CCN)NC(=O)CC[C@@H](NS(=O)(=O)c1ccc(NC(=O)c2ccc(C(N)=O)cc2)cc1)C(=O)O` [Compound 818] here?
**A.** 1.1 nM

**Q.** With `CC(C)C[C@H](NC(=O)[C@H](CCN)NC(=O)CC[C@@H](NS(=O)(=O)c1ccc(NC(=O)c2ccc(C(N)=O)cc2)cc1)C(=O)O)C(=O)N(C)[C@H](C(=O)NCCCCC(N)=O)C(C)C` [Compound 826] as the compound, how does the IC50 read?
**A.** 0.32 nM

**Q.** With `CC[C@H](C)[C@@H](C(=O)N1CCC[C@H]1C(N)=O)N(C)C(=O)[C@H](CC(C)C)NC(=O)[C@H](CCN)NC(=O)C[C@@H](NS(=O)(=O)c1ccc(NC(=O)c2ccc(C(N)=O)cc2)cc1)C(=O)O` [Compound 839] as the compound, how does the IC50 read?
**A.** 0.62 nM

**Q.** For `CC[C@H](C)[C@@H](C(=O)NCCCC(N)=O)N(C)C(=O)[C@H](CC(C)C)NC(=O)[C@H](CCN)NC(=O)C[C@@H](NS(=O)(=O)c1ccc(NC(=O)c2ccc(C(N)=O)cc2)cc1)C(=O)O` [Compound 841], which IC50 is on record?
**A.** 0.74 nM

**Q.** With `CC[C@H](C)[C@@H](C(=O)N1CC[C@H]1C(N)=O)N(C)C(=O)[C@H](CC(C)C)NC(=O)[C@H](CCN)NC(=O)CC[C@@H](NS(=O)(=O)c1ccc(NC(=O)c2ccc(C(N)=O)cc2)cc1)C(=O)O` [Compound 845] as the compound, how does the IC50 read?
**A.** 1.3 nM

**Q.** Which IC50 does the source give for `CC(C)C[C@H](NC(=O)[C@H](CCN)NC(=O)CC[C@@H](NS(=O)(=O)c1ccc(NC(=O)c2ccc(C(N)=O)cc2)cc1)C(=O)O)C(=O)N(C)[C@@H](CC(C)C)C(=O)NCCCCC(N)=O` [Compound 853] here?
**A.** 0.57 nM

**Q.** How did the IC50 turn out when `CC(C)C[C@H](NC(=O)[C@@H]1C[C@H](N)CN1C(=O)CC[C@@H](NS(=O)(=O)c1ccc(NC(=O)c2ccc(C(N)=O)cc2)cc1)C(=O)O)C(=O)N(C)[C@@H](CCC(=O)O)C(=O)NCCCCC(=O)O` [Compound 858] was run?
**A.** 0.17 nM

**Q.** With `CC(C)C[C@H](NC(=O)[C@@H]1C[C@H](N)CN1C(=O)CC[C@@H](NS(=O)(=O)c1ccc(NC(=O)c2ccc(C(N)=O)cc2)cc1)C(=O)O)C(=O)N(C)[C@@H](CCC(=O)O)C(=O)O` [Compound 859] as the compound, how does the IC50 read?
**A.** 0.25 nM

**Q.** `CC[C@H](C)[C@@H](C(N)=O)N(C)C(=O)[C@@H]1CCCCNC(=O)CCNC(=O)CC[C@H](NC(=O)CCCNS(=O)(=O)c2ccc(Oc3ccccc3)cc2)C(=O)N[C@@H](CC(=O)O)C(=O)N[C@@H](CCN)C(=O)N1` [Compound 896] was tested. Which IC50 did it give?
**A.** 1.2 nM

**Q.** `CC[C@H](C)[C@@H](C(=O)N1CCC[C@H]1CC(N)=O)N(C)C(=O)[C@H](CC(C)C)NC(=O)[C@H](C)NC(=O)[C@H](CC(=O)O)NC(=O)[C@H](CCCCNC(=O)COCCOCCNC(=O)COCCOCCNC(=O)CC[C@H](NC(=O)CCCCCCC(=O)O)C(=O)O)NC(=O)CCCNS(=O)(=O)c1ccc(Oc2ccccc2)cc1` [Compound 901] was tested. Which IC50 did it give?
**A.** 0.054 nM

**Q.** For `CC[C@H](C)[C@@H](C(=O)N1CCC[C@H]1CC(N)=O)N(C)C(=O)[C@H](CC(C)C)NC(=O)[C@H](C)NC(=O)[C@H](CC(=O)O)NC(=O)[C@H](CCCCNC(=O)[C@H](CCCCN)NC(=O)[C@H](CCCCN)NC(=O)[C@H](CCCCN)NC(=O)CCCCCCCCC(=O)O)NC(=O)CCCNS(=O)(=O)c1ccc(Oc2ccccc2)cc1` [Compound 902], which IC50 is on record?
**A.** 0.049 nM

**Q.** For `CC[C@H](C)[C@@H](C(=O)N1CCC[C@H]1CC(N)=O)N(C)C(=O)[C@H](CC(C)C)NC(=O)[C@H](C)NC(=O)[C@H](CC(=O)O)NC(=O)[C@H](CCCCNC(=O)COCCOCCNC(=O)COCCOCCNC(=O)CC[C@H](NC(=O)CCCCCCCCCCCCCCCCC(=O)O)C(=O)O)NC(=O)CCCNS(=O)(=O)c1ccc(Oc2ccccc2)cc1` [Compound 904], which IC50 is on record?
**A.** 0.2 nM

**Q.** `CC[C@H](C)[C@@H](C(=O)N1CCC[C@H]1CC(N)=O)N(C)C(=O)[C@H](CC(C)C)NC(=O)[C@H](C)NC(=O)[C@H](CC(=O)O)NC(=O)[C@H](CCCCNC(=O)[C@H](CCCCN)NC(=O)[C@H](CCCCN)NC(=O)[C@H](CCCCN)NC(=O)CCCCCCCCCCCCCCC(=O)O)NC(=O)CCCNS(=O)(=O)c1ccc(Oc2ccccc2)cc1` [Compound 905] was tested. Which IC50 did it give?
**A.** 0.092 nM

**Q.** How did the IC50 turn out when `CC(C)C[C@H](NC(=O)[C@H](CCN)NC(=O)[C@H](CC(=O)O)NC(=O)[C@H](CCCCNC(=O)[C@H](CCCCN)NC(=O)[C@H](CCCCN)NC(=O)[C@H](CCCCN)NC(=O)CCCCCCCCCCCCCCC(=O)O)NC(=O)CCCNS(=O)(=O)c1ccc(Oc2ccccc2)cc1)C(=O)N(C)[C@@H](CCC(=O)O)C(=O)N1CCC[C@H]1CC(N)=O` [Compound 907] was run?
**A.** 0.08 nM

**Q.** `CC[C@H](C)[C@@H](C(=O)N1CCC[C@H]1CC(N)=O)N(C)C(=O)[C@H](CC(C)C)NC(=O)[C@H](CCN)NC(=O)[C@H](CC(=O)O)NC(=O)[C@H](CCCCNC(=O)[C@@H](CCCCN)NC(=O)[C@@H](CCCCN)NC(=O)[C@@H](CCCCN)NC(=O)CCCCCCCCCCCCCCC(=O)O)NC(=O)CCCNS(=O)(=O)c1ccc(Oc2ccccc2)cc1` [Compound 908] was tested. Which IC50 did it give?
**A.** 0.049 nM

**Q.** Which IC50 does the source give for `CC(C)C[C@H](NC(=O)[C@H](CCN)NC(=O)[C@H](CC(=O)O)NC(=O)[C@H](CCCCNC(=O)[C@@H](CCCCN)NC(=O)[C@@H](CCCCN)NC(=O)[C@@H](CCCCN)NC(=O)CCCCCCCCCCCCCCC(=O)O)NC(=O)CCCNS(=O)(=O)c1ccc(Oc2ccccc2)cc1)C(=O)N(C)[C@@H](CCC(=O)O)C(=O)N1CCC[C@H]1CC(N)=O` [Compound 909] here?
**A.** 0.13 nM
